# Results as given in PubChem BioAssay AID686979 (National Center for Advancing Translational Sciences (NCATS), 2013).
# Out of some 420,000 compounds screened, about 50,000 (12%) were called active. Inconclusive means that the source gave no clear call. Such entries were picked first, then a sample of the others. The call rests on the fitted dose curve; in most records, active means well fitted inhibition curve with a large enough effect; inconclusive means small, poorly fitted or top-dose-only effect; inactive means flat fitted curve, though single readings scatter. No potency is given beside an inconclusive call; the fits are too rough.
# Experiment: qHTS for Inhibitors of human tyrosyl-DNA phosphodiesterase 1 (TDP1): qHTS in cells in presence of CPT; further: nearly all actives have a fitted effect of over 55% in size
# Details: chicken DT40 Tdp1-/-;hTDP1 cells + 20 nM CPT, ATP luminescence, 48 h; activity change, negative = growth inhibition: at 46.2 µM (top of the series) unless noted
# In short: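 Chicken DT40 Tdp1-/- cells complemented with human TDP1, 400 cells/well, exposed to compounds plus 20 nM camptothecin for at least 48 h at 37 C; viability read as ATP content by CellTiter-Glo luminescence.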
# On the % scale 0 is the no-effect control and ±100 the full control effect; potency means the concentration at half of the fitted maximal effect; tags describe the fitted curve by direction and shape.
SMILES,Potency,"activity change, negative = growth inhibition"
CCN1CCN(CCc2nc3cc(NC(=O)COc4ccccc4)ccc3n2C)CC1,inactive,
CC1(C)Cc2cccc(OC(=O)NCCc3ccc(F)cc3)c2O1,,inconclusive: -30.6% [inhibitor]
CCOCCOC(=O)C1=C(C)N(C)C(=O)NC1c1cc(Cl)c(O)c(OC)c1 (centres undefined),,inconclusive: -30.5% [inhibitor]
O=C1O[C@@H]([C@H](O)CO)C(O)=C1O,active: 20.6 µM,
O=C(Cn1c(-c2ccccc2)c[n+]2ccsc12)c1ccccc1,active: 20.6 µM,
CCCc1ccc(OCCNC(=O)c2ccccc2Br)cc1,"inconclusive [inhibitor, single point]",
CCOc1ccc(S(=O)(=O)N2CCN(C(=O)c3ccc(-n4cncn4)c([N+](=O)[O-])c3)CC2)cc1,"inconclusive [inhibitor, partial curve]",
COc1cc(OC)c(OC)cc1/C=C/c1nc2ccccc2c(=O)n1-c1ccc(Br)c(C)c1,"inconclusive [inhibitor, single point]",
O=C(Nc1ccc(N2CCOCC2)cc1)C1CCN(S(=O)(=O)Cc2ccccc2)CC1,"inconclusive [inhibitor, partial curve, poor fit]",
Cc1ccc(CC#N)c(-c2c(CC#N)ccc(C)c2C)c1C,"inconclusive [inhibitor, single point]",
Cc1ccc(NC(=O)Cn2c(=O)ccc3cc(S(=O)(=O)N4CCCC4)ccc32)cc1N(C)C,"inconclusive [inhibitor, single point]",
COc1cccc(C(=O)Nc2nnc(-c3ccccc3)s2)c1,"inconclusive [inhibitor, single point]",
C=CCN1C(=O)C(CC(C)C)NC1=S (centres undefined),inactive,
Cn1c2c(c3cnc4cc(Cl)ccc4c31)CN(Cc1ccc(Cl)cc1)CC2,active: 7.94 µM,
Cc1ccc(C(=O)Nc2cccc(-c3nc(CNC(=O)c4ccccc4-n4cccn4)c(C)o3)c2)s1,,inactive: -16.4% [at 9.04 µM]
COc1ccc(N(C)C(=O)c2cc3c(s2)-c2ccccc2OC3)cc1,"inconclusive [inhibitor, single point]",
Cc1ccc(N2CC(C(=O)Nc3cc(C(F)(F)F)ccc3N3CCCC3)CC2=O)cc1 (centres undefined),"inconclusive [inhibitor, single point]",
Cc1ccc(Cl)cc1N1CCN(C(=O)C2CCCN(Cc3nc(-c4cccc(Cl)c4)oc3C)C2)CC1 (centres undefined),"inconclusive [inhibitor, single point]",
Cc1ccc(OCC(=O)NC(=S)Nc2cccc(NC(=O)c3ccccc3)c2)cc1,inactive,
O=C(Nc1ccc(Br)cn1)C1CCN(S(=O)(=O)c2cccs2)CC1,"inconclusive [inhibitor, single point]",
COC(=O)Cn1nc(-c2ccccc2)c2cc(Cl)ccc21,inactive,
CCC(C(=O)NCCc1ccc(Cl)cc1)n1ccc2cc(S(=O)(=O)N3CCCCC3)ccc21 (centres undefined),active: 13 µM,
COc1ccc(CCNC(=O)C(=O)NCC(c2cccnc2)N2CCN(c3ccccc3)CC2)cc1 (centres undefined),active: 23.1 µM,

SMILES,Potency,"activity change, negative = growth inhibition"
CSc1ccc(CN2CCCC(CO)(Cc3ccccc3)C2)cc1 (centres undefined),"inconclusive [inhibitor, single point]",
C=CCOc1c(CCC)cc(CCC)cc1C(N)=O,inactive,
COC(=O)[C@@H]1CCCN1C(=O)CCc1nnc(CCc2c[nH]c3ccccc23)o1,"inconclusive [inhibitor, single point]",
O=C(COC(=O)c1c2c(nc3ccccc13)CCCCC2)NCc1ccc2c(c1)OCO2,"inconclusive [inhibitor, single point]",
O=C(NCc1ccc(Cl)cc1)c1ccc2c(c1)N(Cc1ccccc1F)C(=O)c1ccccc1S2=O (centres undefined),"inconclusive [inhibitor, single point]",
CS(=O)(=O)N(Cc1ccc(Cl)cc1)c1ccc(C(=O)NCCSc2ccccn2)cc1,"inconclusive [inhibitor, partial curve]",
C[C@H](NC(=O)c1ccc(C(C)(C)C)cc1)C(=O)N1CCC2(CC1)NCCc1[nH]cnc12,"inconclusive [inhibitor, single point]",
O=C(Nc1ccc(CN2CCOCC2)cc1)c1ccc(-c2cccc([N+](=O)[O-])c2)o1,active: 20.6 µM,
O=C(C=Cc1ccccc1O)c1ccccc1O,"inconclusive [inhibitor, single point]",
Cc1nc(NC(=O)c2cnccn2)ccc1Br,inactive,
CCN(CC(=O)NC(C)(C)C)Cc1cc(=O)n2c(-c3ccccc3)csc2n1,inactive,
CCn1c(=O)cc(SCC(=O)NCc2ccc(C)cc2)c2ccccc21,"inconclusive [inhibitor, single point]",
COc1ccccc1CC(=O)Nc1nc(-c2ccc(F)c(F)c2)cs1,"inconclusive [inhibitor, single point]",
CC(=O)Nc1ccc(S(=O)(=O)N(Cc2ccccc2)Cc2ccccc2)cc1,"inconclusive [inhibitor, partial curve]",
O=C(NNC(=O)c1ccc(-c2ccc([N+](=O)[O-])cc2)o1)c1ccncc1,inactive,
O=C(Nc1cccc2ccccc12)N1CC=C(c2ccccc2)CC1,"inconclusive [inhibitor, single point]",
CCOC(=O)C1(Cc2cccc(Cl)c2)CCCN(C(=O)c2occc2C)C1 (centres undefined),"inconclusive [inhibitor, single point]",
O=C(c1ccccc1)C1CCN(C(=O)C2CCC(=O)N(Cc3cccc(F)c3)C2)CC1 (centres undefined),,inconclusive: -31.5% [inhibitor]
COc1ccc(NC(=O)Cn2cc(C(C)=O)c3ccccc32)cc1,active: 5.17 µM,
CCC1(C2=CCCCC2)C(=O)NC(=O)N=C1N (centres undefined),inactive,
COc1ccc(C(=O)O)cc1S(=O)(=O)NCc1cccnc1,inactive,
NC(=O)c1ccc(NC(=O)COC(=O)c2cc(S(=O)(=O)N3CCOCC3)ccc2N2CCCCC2)cc1,"inconclusive [inhibitor, single point]",
Cc1cc2nc(-c3ccc(SCc4ccccc4C#N)nc3)[nH]c2cc1C,"inconclusive [inhibitor, single point]",

SMILES,Potency,"activity change, negative = growth inhibition"
Cc1ccc(-c2cc3nc(C)cc(NCc4ccco4)n3n2)cc1,inactive,
COc1cccc(NC(=O)CCN2CCN(CCO)CC2)c1,inactive,
Cc1ccc(C)c(S(=O)(=O)N2CCCOC2CNC(=O)C(=O)NCc2cccs2)c1 (centres undefined),"inconclusive [inhibitor, single point]",
O=C1C(NS(=O)(=O)c2ccc(Cl)cc2)=C(N2CCCCC2)C(=O)c2ccccc21,active: 25.9 µM,
CCC1(C2CCN(Cc3cc4ccccc4o3)CC2)NC(=O)N(CC2COc3ccccc3O2)C1=O (centres undefined),"inconclusive [inhibitor, single point]",
C/C(=N/OC(=O)CC(C)C)c1cc(-c2ccc(Cl)cc2)no1,"inconclusive [inhibitor, single point]",
COc1cccc(-c2ccc3c(N)c(C(=O)Nc4ccccc4C)sc3n2)c1,"inconclusive [inhibitor, single point]",
CCS(=O)(=O)N1CCN(c2ccc(C(=O)NC34CC5CC(CC(C5)C3)C4)cc2[N+](=O)[O-])CC1,active: 11.6 µM,
Cn1c(=O)c2[nH]c(NN=Cc3ccc(F)cc3)nc2n(C)c1=O,inactive,
N/C(=N\OC(=O)c1cccc(Cn2cc(C(F)(F)F)ccc2=O)c1)c1ccc(Cl)cc1,"inconclusive [inhibitor, single point]",
CCCCC1CC1C(=O)Nc1ccc(OC)c(OC)c1 (centres undefined),"inconclusive [inhibitor, full curve]",
Cc1ccccc1OCC(=O)N/N=C/c1ccc2c(c1)OCCO2,"inconclusive [inhibitor, partial curve]",
CCCCNC(=O)c1ccc2c(c1)NC(=O)C(CS(=O)(=O)Cc1ccc(F)cc1Cl)N2 (centres undefined),inactive,
CC(C)c1ccc2[nH]c3nc(SCC(=O)NC4CC4)nnc3c2c1,"inconclusive [inhibitor, single point]",
Cc1ccc(OCCC(=O)NNC(=O)c2nn(C)c(=O)c3ccccc23)cc1,"inconclusive [inhibitor, single point]",
O=S(=O)(c1ccccc1)N1CN(c2ccc(F)cc2F)c2nc3ccccc3nc21,"inconclusive [inhibitor, single point]",
CCOc1ccc(-c2noc(-c3csc([C@@H]4O[C@H](CO)[C@H](O)[C@H](O)[C@H]4O)n3)n2)cc1,inactive,
COc1ccccc1/C=C/C=N/n1c(COc2ccccc2)n[nH]c1=S,"inconclusive [inhibitor, partial curve, poor fit]",
COc1cc(-c2nnn(Cc3ccccc3C)n2)cc(OC)c1OC,"inconclusive [inhibitor, single point]",
CCCCC(O)(CCCC)C(=O)N/N=C(\C)c1ccc(Cl)cc1,"inconclusive [inhibitor, partial curve]",
O=Nc1[nH]c(=O)c(/C=C(\O)c2ccccc2)nc1NO,"inconclusive [inhibitor, single point]",
CC(C)CCNC(=O)c1ccc2c(c1)nc1n2CCCCC1,"inconclusive [inhibitor, single point]",
CCCc1nc(SCC(=O)Nc2cc(C)on2)c2c(=O)n(C)c(=O)n(C)c2n1,"inconclusive [inhibitor, partial curve, poor fit]",
